Source: PubChem BioAssay AID624255 (Broad Institute, 2012)
The campaign covered roughly 77,000 compounds. About 4,600 (6%) were called active. Inconclusive results, whose numbers are uncertain, are shown with a selection of clear calls.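 The calls were made as follows: active = mean inhibition above about 93%, with at least 55% of replicates each passing it (limit read from the data, passing the limit was not always enough); inconclusive = only one of those two conditions holds; inactive = neither condition holds.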 Some structures have more than one record in an assay (separate samples or runs), and their calls can disagree.

Assay: T. cruzi intracellular proliferation inhibitors, primary screen, cell-based, beta-gal Tulahuen parasites, NIH3T3 host, luminescence (AID 624255)
Settings: T. cruzi beta-gal in NIH3T3, GalScreen luminescence, 90 h; at 8.34 µM; active compounds read high

Compound | inhibition
C[C@@H]1CN([C@H](C)CO)S(=O)(=O)c2ccc(C#Cc3ccccc3)cc2O[C@H]1CN(C)C(=O)Cc1ccccn1 | inconclusive: 87.9%
C[C@@H]1CCCCO[C@@H](CN(C)C(=O)Nc2cccc3ccccc23)[C@H](C)CN([C@H](C)CO)C(=O)c2cc(N(C)C)ccc2O1 | active: 102%
C[C@H](CO)N1C[C@H](C)[C@@H](CN(C)Cc2ccc(C(F)(F)F)cc2)OCCCC[C@H](C)Oc2ccc(NC(=O)Nc3cccc4ccccc34)cc2C1=O | inconclusive: 120%
CCCNC(=O)N1[C@@H](C#N)[C@H](c2ccc(C#Cc3cccc(F)c3)cc2)[C@@H]1CO | inconclusive: 95.8%
COc1ccc(S(=O)(=O)Nc2ccc3c(c2)C(=O)N([C@H](C)CO)C[C@@H](C)[C@H](CN(C)S(=O)(=O)c2ccc(OC)cc2)OCCCC[C@@H](C)O3)cc1 | inconclusive: 93.7%
C[C@@H]1CN([C@@H](C)CO)C(=O)c2cc(NS(=O)(=O)c3ccc(Cl)cc3)ccc2O[C@H]1CN(C)CC1CC1 | inconclusive: 100%
Cc1ccc(-c2ccc([C@@H]3[C@H](CO)N4CCCCN(C(=O)Nc5ccccc5)C[C@@H]34)cc2)cc1 | inconclusive: 98.2%
CCCC#Cc1ccc2c(c1)O[C@H](CN(C)C(C)=O)[C@@H](C)CN([C@H](C)CO)S2(=O)=O | inactive: 49.4%
COc1cccc(-c2ccc3c(c2)O[C@@H](CN(C)C(=O)C2CCCCC2)[C@H](C)CN([C@@H](C)CO)S3(=O)=O)c1 | active: 112%
C[C@H]1CN([C@@H](C)CO)C(=O)c2cc(NS(=O)(=O)c3cccs3)ccc2O[C@H]1CN(C)Cc1ccc(-c2ccccc2)cc1 | inconclusive: 83.8%
C[C@H](CO)N1C[C@H](C)[C@@H](CN(C)CC2CCCCC2)Oc2ccc(NC(=O)CCC(F)(F)F)cc2C1=O | inconclusive: 95.5%
O=C(Nc1ccc(F)cc1)N1C[C@H]2[C@@H](c3ccccc31)[C@@H](CO)N2Cc1ccccc1Cl | inconclusive: 97.3%
C[C@H]1CCCCO[C@H](CN(C)Cc2ccc(Cl)c(Cl)c2)[C@@H](C)CN([C@@H](C)CO)C(=O)c2cc(NC(=O)Nc3cccc4ccccc34)ccc2O1 | inconclusive: 121%
COc1cccc(C#Cc2ccc3c(c2)O[C@@H](CN(C)S(=O)(=O)c2ccccc2F)[C@@H](C)CN([C@@H](C)CO)S3(=O)=O)c1 | inconclusive: 127%
C[C@@H]1CCCCO[C@H](CN(C)Cc2ccc3c(c2)OCO3)[C@@H](C)CN([C@@H](C)CO)C(=O)c2cc(NS(=O)(=O)c3ccc(Cl)cc3)ccc2O1 | inconclusive: 95%
C[C@@H]1CN([C@@H](C)CO)S(=O)(=O)c2ccc(C#CCN(C)C)cc2O[C@@H]1CN(C)Cc1cccnc1 | inconclusive: 87.8%
COc1ccc(S(=O)(=O)N(C)C[C@H]2OCCCC[C@@H](C)Oc3ccc(NC(=O)C4CCCCC4)cc3C(=O)N([C@@H](C)CO)C[C@H]2C)cc1 | inactive: 57.1%
O=C(C[C@H]1CC[C@H](NC(=O)C2CCOCC2)[C@H](CO)O1)Nc1nccs1 | inactive: 8.08%
CN(C)C(=O)C[C@@H]1C[C@H]2c3cc(NS(=O)(=O)c4ccc(F)cc4)ccc3O[C@H]2[C@@H](CO)O1 | inconclusive: 97.2%
CCCC(=O)Nc1ccc2c(c1)C(=O)N(C)[C@H]1CC[C@@H](CC(=O)NCCN3CCCCC3)O[C@H]1CO2 | active: 99.2%

Compound | inhibition
CCCNC(=O)N1[C@H](CN(C)C(C)=O)[C@H](c2ccc(C3=CCCC3)cc2)[C@@H]1CO | inconclusive: 99.1%
O=C(C1CCC1)N1CC[C@@H]2[C@H](CO)Nc3ccc(-c4cccc(F)c4)cc3[C@@H]21 | inconclusive: 95.2%
C[C@@H]1CN([C@H](C)CO)C(=O)c2cc(NC(=O)Nc3ccc(C(F)(F)F)cc3)ccc2O[C@@H](C)CCCCO[C@@H]1CN(C)CC1CCCCC1 | inconclusive: 88.6%
N#C[C@@H]1[C@@H](c2ccc(C#Cc3cccnc3)cc2)[C@@H](CO)N1C(=O)C1CCCCC1 | active: 103%
COc1ccc(C#Cc2ccc([C@H]3[C@@H](CO)N4CCCCN(S(=O)(=O)c5ccccc5)C[C@H]34)cc2)cc1 | active: 101%
COc1ccc(NC(=O)Nc2cccc3c2O[C@@H](CN(C)Cc2ccc(C(=O)Nc4ccccc4N)cc2)[C@H](C)CN([C@H](C)CO)C3=O)cc1 | inconclusive: 118%
O=C(C[C@@H]1C=C[C@H](NC(=O)CCN2CCCCC2)[C@@H](CO)O1)NCc1ccc(Cl)c(Cl)c1 | inactive: 36.4%
CN(C)C(=O)[C@H]1[C@H](CO)[C@H]2Cn3c(ccc(-c4ccccc4)c3=O)[C@@H]1N2CC1CCCC1 | inconclusive: 98.1%
CC(=O)N(C)C[C@@H]1Oc2cc(-c3ccc(C)cc3)ccc2S(=O)(=O)N([C@H](C)CO)C[C@H]1C | inactive: -15.5%
CN(C)C(=O)c1ccc(-c2cccc(-c3nc(C(=O)NC4CCCC4)cc4c3[C@@H](CCO)N([S@](=O)C(C)(C)C)C4)c2)cc1 | inactive: 72%
C[C@H](CO)N1C[C@H](C)[C@@H](CN(C)Cc2ccc(C(F)(F)F)cc2)Oc2c(NC(=O)Nc3ccc(C(F)(F)F)cc3)cccc2C1=O | inactive: 40.8%
CN(C)C(=O)c1cccc(-c2ccc3c(c2)[C@@H]2[C@@H](CCN2C(=O)C2CC2)[C@@H](CO)N3)c1 | active: 106%
CN(C)C(=O)c1ccc(-c2ccc([C@H]3[C@H](CO)N4CCCCN(C(=O)C5CC5)C[C@@H]34)cc2)cc1 | inconclusive: 96.5%
CN1c2ccc(-c3ccc(C#N)cc3)cc2[C@@H]2[C@@H](CCN2C(=O)CC2CC2)[C@@H]1CO | inconclusive: 97.9%
C[C@@H]1CN([C@H](C)CO)C(=O)c2cc(C#Cc3ccccc3F)cnc2O[C@@H]1CN(C)S(=O)(=O)c1ccccc1F | active: 106%
OC[C@H]1[C@H](c2ccc(C#Cc3ccccc3F)cc2)[C@@H]2CN(CC3CCOCC3)CCCCN12 | inconclusive: 95.2%
COc1ccc(NC(=O)Nc2ccc3c(c2)C(=O)N([C@H](C)CO)C[C@@H](C)[C@@H](CN(C)Cc2ccc(Cl)c(Cl)c2)OCCCC[C@H](C)O3)cc1 | active: 126%
C[C@@H]1CN([C@H](C)CO)C(=O)c2cc(NC(=O)c3ccccc3)ccc2O[C@@H](C)CCCCO[C@@H]1CN(C)Cc1ccccc1 | inconclusive: 95.7%
C[C@@H]1CN([C@@H](C)CO)C(=O)CCCn2cc(nn2)CO[C@H]1CN(C)Cc1ccc(Cl)c(Cl)c1 | active: 135%
C[C@@H]1CN([C@H](C)CO)S(=O)(=O)c2ccc(C#Cc3cccnc3)cc2O[C@@H]1CN(C)C(=O)Nc1ccc2c(c1)OCO2 | inconclusive: 99.4%

Compound | inhibition
Cc1ccccc1-c1ccc([C@H]2[C@@H](CO)N3CCCCN(C(=O)NC4CCCC4)C[C@H]23)cc1 | active: 115%
C[C@H]1CN([C@@H](C)CO)C(=O)c2cc(NC(=O)Cc3cn(C)c4ccccc34)ccc2O[C@H]1CN(C)Cc1ccc(C(F)(F)F)cc1 | inconclusive: 88.3%
C[C@@H]1CN([C@H](C)CO)C(=O)c2cccc(NC(=O)Nc3ccc(C(F)(F)F)cc3)c2O[C@@H]1CN(C)Cc1ccc(-c2ccccc2)cc1 | inconclusive: 119%
O=C(C[C@@H]1C[C@@H]2c3cc(NS(=O)(=O)c4ccccc4)ccc3O[C@@H]2[C@H](CO)O1)NCC1CC1 | inactive: 14.5%
COC(=O)C[C@H]1C=C[C@@H](NC(=O)Nc2ccc(C(F)(F)F)cc2)[C@H](CO)O1 | inactive: -36.1%
CCCN(C)C[C@@H]1Oc2cc(C#Cc3ccccc3F)ccc2S(=O)(=O)N([C@@H](C)CO)C[C@H]1C | inconclusive: 106%
CCCC#Cc1ccc([C@H]2[C@H](CO)N3CCCCN(C(=O)NC4CCCC4)C[C@@H]23)cc1 | inconclusive: 105%
COCC#Cc1ccc([C@H]2[C@H](CO)N3CCCCN(Cc4cncnc4)C[C@@H]23)cc1 | active: 115%
C[C@H]1CN([C@@H](C)CO)C(=O)c2cc(NC(=O)Cc3cn(C)c4ccccc34)ccc2O[C@@H]1CN(C)Cc1ccncc1 | inconclusive: 95.7%
C[C@H](CO)N1C[C@H](C)[C@H](CN(C)C(=O)Nc2ccc(F)cc2)Oc2ncc(C#Cc3ccccc3)cc2C1=O | active: 110%
C[C@@H]1CN([C@H](C)CO)S(=O)(=O)c2ccc(-c3ccc(F)cc3)cc2O[C@@H]1CN(C)Cc1cccc(F)c1 | inactive: 74.2%
C[C@@H]1CCCCO[C@H](CN(C)C(=O)c2ccccc2)[C@H](C)CN([C@@H](C)CO)C(=O)c2cc(NC(=O)Nc3ccc(C(F)(F)F)cc3)ccc2O1 | inconclusive: 122%
CO[C@@H](CN(C)S(=O)(=O)c1ccc(Cl)cc1)[C@@H](C)CN(Cc1ccccc1Cl)[C@H](C)CO | inconclusive: 96%
Cc1ccccc1-c1ccc2c(c1)O[C@H](CN(C)C(=O)Nc1ccccc1)[C@@H](C)CN([C@H](C)CO)S2(=O)=O | inconclusive: 76.4%
C[C@H](CO)N1C[C@H](C)[C@@H](CN(C)Cc2ccc(-c3ccccc3)cc2)Oc2ccc(NC(=O)CCC(F)(F)F)cc2CC1=O | inconclusive: 95.6%
O=C(Nc1ccccc1)N1CCCCN2[C@H](CO)[C@H](c3ccc(C4=CCCCC4)cc3)[C@@H]2C1 | inconclusive: 115%
CC(C)NC(=O)N1[C@H](CO)[C@@H](c2ccc(C#CC3CCCC3)cc2)[C@@H]1C#N | active: 98.5%
N#C[C@@H]1[C@H](c2ccc(C#CC3CC3)cc2)[C@@H](CO)N1S(=O)(=O)c1ccccc1 | inconclusive: 95.9%
